# Measured values taken from the supplement of paper PMC8728848.
# Some of the results follow.
# B1: Threefoil (Haloarcula marismortui) (protein)
# chain: GSSHHHHHHHHHHSSGLVPRGSHMGDGYYKLVARHSGKALDVENASTSDGANVIQYSYSGGDNQQWRLVDLGDGYYKLVARHSGKALDVENASTSDGANVIQYSYSGGDNQQWRLVDLGDGYYKLVARHSGKALDVENASTSDGANVIQYSYSGGDNQQWRLVDL
# Columns and labels:
# Assay in all cases: glycan array binding signal (z-score within array); higher = stronger binding
# Conditions in all cases: glycan notation: IUPAC condensed, linker removed
# GalNAc(b1-4)GlcNAc = biological target: GalNAc(b1-4)GlcNAc
# Method in brief: (§1)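 The binding signal is a Z-score computed within each array and averaged over linkers. Arrays of the same protein sequence at different concentrations or buffers were also averaged together. Data originate from 3228 arrays in the Consortium for Functional Glycomics database, kept only where the protein sequence was available.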
# [1] = biological target: GalNAc(b1-4)GlcNAc(b1-2)Man
# Method in brief: as §1
# [2] = biological target: GalNAc(b1-4)GlcNAc(b1-2)Man(a1-3)[GalNAc(b1-4)GlcNAc(b1-2)Man(a1-6)]Man(b1-4)GlcNAc(b1-4)GlcNAc
# Method in brief: as §1
# [3] = biological target: GalNAc(b1-4)GlcNAc(b1-3)GalNAc(b1-4)GlcNAc
# Method in brief: as §1
# GalNAc(b1-4)GlcNAc6S = biological target: GalNAc(b1-4)GlcNAc6S
# Method in brief: as §1
# GalNAc(b1-6)GalNAc = biological target: GalNAc(b1-6)GalNAc
# Method in brief: as §1
# GalNAc3S(b1-4)GlcNAc = biological target: GalNAc3S(b1-4)GlcNAc
# Method in brief: as §1
# GalNAc3S(b1-4)GlcNAc3S = biological target: GalNAc3S(b1-4)GlcNAc3S
# Method in brief: as §1
# [4] = biological target: GalNAc3S(b1-4)[Fuc(a1-3)]GlcNAc
# Method in brief: as §1
# GalNAc4S6S(b1-4)GlcNAc = biological target: GalNAc4S6S(b1-4)GlcNAc
# Method in brief: as §1
# GalNAc6S(b1-4)GlcNAc = biological target: GalNAc6S(b1-4)GlcNAc
# Method in brief: as §1
# Glc(a1-4)Glc = biological target: Glc(a1-4)Glc
# Method in brief: as §1
# [5] = biological target: Glc(a1-4)Glc(a1-4)Glc(a1-4)Glc
# Method in brief: as §1
# Glc(a1-6)Glc(a1-6)Glc = biological target: Glc(a1-6)Glc(a1-6)Glc
# Method in brief: as §1
# [6] = biological target: Glc(a1-6)Glc(a1-6)Glc(a1-6)Glc
# Method in brief: as §1
# Glc(b1-4)Glc = biological target: Glc(b1-4)Glc
# Method in brief: as §1
# Glc(b1-6)Glc = biological target: Glc(b1-6)Glc
# Method in brief: as §1
# GlcA(b1-3)Gal = biological target: GlcA(b1-3)Gal
# Method in brief: as §1
# GlcA(b1-3)GlcNAc = biological target: GlcA(b1-3)GlcNAc
# Method in brief: as §1
# GlcA(b1-6)Gal = biological target: GlcA(b1-6)Gal
# Method in brief: as §1
# [7] = biological target: GlcA3S(b1-3)Gal(b1-4)GlcNAc(b1-2)Man
# Method in brief: as §1
# [8] = biological target: GlcA3S(b1-3)Gal(b1-4)GlcNAc(b1-3)Gal(b1-4)Glc
# Method in brief: as §1
# [9] = biological target: GlcNAc(a1-3)Gal(b1-4)GlcNAc
# Method in brief: as §1
# [10] = biological target: GlcNAc(a1-4)Gal(b1-3)GlcNAc
# Method in brief: as §1
# [11] = biological target: GlcNAc(a1-4)Gal(b1-4)GalNAc
# Method in brief: as §1
# [12] = biological target: GlcNAc(a1-4)Gal(b1-4)GlcNAc
# Method in brief: as §1
# [13] = biological target: GlcNAc(a1-4)Gal(b1-4)GlcNAc(b1-3)Gal(b1-4)Glc
# Method in brief: as §1
# [14] = biological target: GlcNAc(a1-4)Gal(b1-4)GlcNAc(b1-3)Gal(b1-4)GlcNAc
# Method in brief: as §1
# [15] = biological target: GlcNAc(a1-4)Gal(b1-4)GlcNAc(b1-3)Gal(b1-4)GlcNAc(b1-3)Gal(b1-4)GlcNAc
# Method in brief: as §1
# [16] = biological target: GlcNAc(a1-4)Gal(b1-4)GlcNAc(b1-3)Gal(b1-4)[Fuc(a1-3)]GlcNAc(b1-3)Gal(b1-4)[Fuc(a1-3)]GlcNAc
# Method in brief: as §1
# [17] = biological target: GlcNAc(a1-6)Gal(b1-4)GlcNAc
# Method in brief: as §1
# [18] = biological target: GlcNAc(b1-2)Gal(b1-3)GalNAc
# Method in brief: as §1
# [19] = biological target: GlcNAc(b1-2)Man(a1-3)[GlcNAc(b1-2)Man(a1-6)]Man(b1-4)GlcNAc(b1-4)GlcNAc
# Method in brief: as §1
# [20] = biological target: GlcNAc(b1-2)Man(a1-3)[GlcNAc(b1-2)Man(a1-6)]Man(b1-4)GlcNAc(b1-4)[Fuc(a1-6)]GlcNAc
# Method in brief: as §1
# [21] = biological target: GlcNAc(b1-2)Man(a1-3)[GlcNAc(b1-4)][GlcNAc(b1-2)Man(a1-6)]Man(b1-4)GlcNAc(b1-4)GlcNAc
# Method in brief: as §1
# [22] = biological target: GlcNAc(b1-2)Man(a1-3)[GlcNAc(b1-4)][GlcNAc(b1-2)Man(a1-6)]Man(b1-4)GlcNAc(b1-4)[Fuc(a1-6)]GlcNAc
# Method in brief: as §1
# [23] = biological target: GlcNAc(b1-2)[GlcNAc(b1-4)]Man(a1-3)[GlcNAc(b1-2)Man(a1-6)]Man(b1-4)GlcNAc(b1-4)GlcNAc
# Method in brief: as §1
# [24] = biological target: GlcNAc(b1-2)[GlcNAc(b1-4)]Man(a1-3)[GlcNAc(b1-4)][GlcNAc(b1-2)Man(a1-6)]Man(b1-4)GlcNAc(b1-4)GlcNAc
# Method in brief: as §1
# [25] = biological target: GlcNAc(b1-2)[GlcNAc(b1-4)]Man(a1-3)[GlcNAc(b1-4)][GlcNAc(b1-2)[GlcNAc(b1-6)]Man(a1-6)]Man(b1-4)GlcNAc(b1-4)GlcNAc
# Method in brief: as §1
# [26] = biological target: GlcNAc(b1-2)[GlcNAc(b1-4)]Man(a1-3)[GlcNAc(b1-4)][GlcNAc(b1-2)[GlcNAc(b1-6)]Man(a1-6)]Man(b1-4)GlcNAc(b1-4)[Fuc(a1-6)]GlcNAc
# Method in brief: as §1
# [27] = biological target: GlcNAc(b1-2)[GlcNAc(b1-6)]Man(a1-6)[GlcNAc(b1-2)Man(a1-3)]Man(b1-4)GlcNAc(b1-4)GlcNAc
# Method in brief: as §1
# [28] = biological target: GlcNAc(b1-2)[GlcNAc(b1-6)]Man(a1-6)[GlcNAc(b1-2)Man(a1-3)]Man(b1-4)GlcNAc(b1-4)[Fuc(a1-6)]GlcNAc
# Method in brief: as §1
# [29] = biological target: GlcNAc(b1-2)[GlcNAc(b1-6)]Man(a1-6)[GlcNAc(b1-4)][GlcNAc(b1-2)Man(a1-3)]Man(b1-4)GlcNAc(b1-4)GlcNAc
# Method in brief: as §1
# GlcNAc(b1-3)Fuc = biological target: GlcNAc(b1-3)Fuc
# Method in brief: as §1
# GlcNAc(b1-3)Gal = biological target: GlcNAc(b1-3)Gal
# Method in brief: as §1
binder,measurement,setting,value
B1,glycan array binding signal (z-score),GalNAc(b1-4)GlcNAc,-0.003
same,glycan array binding signal (z-score),[1],-0.238
same,glycan array binding signal (z-score),[2],-0.172
same,glycan array binding signal (z-score),[3],0
same,glycan array binding signal (z-score),GalNAc(b1-4)GlcNAc6S,-0.221
same,glycan array binding signal (z-score),GalNAc(b1-6)GalNAc,-0.12
same,glycan array binding signal (z-score),GalNAc3S(b1-4)GlcNAc,-0.211
same,glycan array binding signal (z-score),GalNAc3S(b1-4)GlcNAc3S,-0.334
same,glycan array binding signal (z-score),[4],-0.193
same,glycan array binding signal (z-score),GalNAc4S6S(b1-4)GlcNAc,-0.205
same,glycan array binding signal (z-score),GalNAc6S(b1-4)GlcNAc,-0.341
same,glycan array binding signal (z-score),Glc(a1-4)Glc,-0.199
same,glycan array binding signal (z-score),[5],-0.221
same,glycan array binding signal (z-score),Glc(a1-6)Glc(a1-6)Glc,-0.239
same,glycan array binding signal (z-score),[6],-0.157
same,glycan array binding signal (z-score),Glc(b1-4)Glc,-0.247
same,glycan array binding signal (z-score),Glc(b1-6)Glc,-0.209
same,glycan array binding signal (z-score),GlcA(b1-3)Gal,-0.209
same,glycan array binding signal (z-score),GlcA(b1-3)GlcNAc,-0.238
same,glycan array binding signal (z-score),GlcA(b1-6)Gal,-0.222
same,glycan array binding signal (z-score),[7],-0.248
same,glycan array binding signal (z-score),[8],-0.293
same,glycan array binding signal (z-score),[9],-0.322
same,glycan array binding signal (z-score),[10],-0.176
same,glycan array binding signal (z-score),[11],-0.271
same,glycan array binding signal (z-score),[12],-0.161
same,glycan array binding signal (z-score),[13],-0.253
same,glycan array binding signal (z-score),[14],-0.319
same,glycan array binding signal (z-score),[15],-0.208
same,glycan array binding signal (z-score),[16],-0.07
same,glycan array binding signal (z-score),[17],-0.15
same,glycan array binding signal (z-score),[18],-0.251
same,glycan array binding signal (z-score),[19],-0.259
same,glycan array binding signal (z-score),[20],-0.176
same,glycan array binding signal (z-score),[21],-0.246
same,glycan array binding signal (z-score),[22],-0.223
same,glycan array binding signal (z-score),[23],-0.222
same,glycan array binding signal (z-score),[24],-0.145
same,glycan array binding signal (z-score),[25],-0.028
same,glycan array binding signal (z-score),[26],-0.103
same,glycan array binding signal (z-score),[27],-0.27
same,glycan array binding signal (z-score),[28],-0.222
same,glycan array binding signal (z-score),[29],-0.143
same,glycan array binding signal (z-score),GlcNAc(b1-3)Fuc,-0.283
same,glycan array binding signal (z-score),GlcNAc(b1-3)Gal,-0.29
